“And” between values parts separate entries of the source, which are not always exact repeats. Equal entries are not always repeated. Out of some 350,000 compounds screened, about 9,900 (2.8%) were called active. This list was built around the results that the source calls inconclusive (neither active nor inactive); the mix of calls is not that of the screen. Calls come from the whole dose curve; as a rule, active = well fitted activation curve with a large enough effect; inconclusive = small, poorly fitted or top-dose-only effect; inactive = no such curve, though single readings can be large or run the other way. A potency beside an inconclusive call is a rough fit, not a confirmed value.
assay: A quantitative high throughput screen for small molecules that induce DNA re-replication in MCF 10a normal breast cells.; note: nearly all actives have a fitted effect of over 50% in size; for activity, positive = re-replication: % of control where 0% means no effect; settings: MCF 10A DNA re-replication, Hoechst nuclear intensity, 48 h; activity, positive = re-replication: at 46.1 µM (top of the series)
Potency is the fitted concentration of half-maximal effect; tags give direction and shape of the fitted curve.

SMILES | Potency | activity, positive = re-replication
Cc1cccc(C)c1OCCOCCN1CCN(C)CC1 | inconclusive: 231 nM [activator, full curve, poor fit] and inconclusive: 23.1 µM [activator, single point] | 
O=C(O)c1ccc(Cl)c(S(=O)(=O)N(Cc2ccccc2)c2ccc(F)cc2)c1 | inconclusive: 29.1 µM [activator, single point] | 
CC[C@@H]1C=C(C(=O)O)[C@H](c2ccc(C#N)cc2)N1S(=O)(=O)c1ccc(C)cc1 |  | inactive: 0.929%
Cc1ccc(OCc2cc(C(=O)N(C)CCc3ccccn3)no2)cc1C | inconclusive: 18.4 µM [activator, single point] | 
COC(=O)CSC1=C(C#N)C(c2cccc(F)c2)CC(=O)N1 (stereo not given) | inconclusive: 4.61 µM [activator, full curve, poor fit] | 
Cc1cc(Nc2ccc(F)cc2C)n2ncnc2n1 |  | inactive: 0.693%
C=CC[C@H]1CC(Cc2ccccc2)=C[C@H](CC=C)N1 | inconclusive: 8.2 µM [activator, partial curve, poor fit] | 
COC(=O)C(Cc1c[nH]c2ccccc12)NC(=O)C(=O)c1c[nH]c2ccccc12 (stereo not given) | inconclusive: 29.1 µM [activator, single point] | 
C=CCNC(=O)/C(C#N)=C/c1c(N2CCN(c3cccc(Cl)c3)CC2)nc2c(C)cccn2c1=O | active: 20.6 µM | 
O=C(NC(=S)Nc1ccccc1O)c1ccc(-c2ccc(Cl)cc2)o1 | active: 16.4 µM | 
OCC1(Cc2ccccc2)CCN(Cc2ccc(C(F)(F)F)cc2)CC1 | inconclusive: 29.1 µM [activator, single point] | 
NC(=S)N=Nc1c(O)n(Cc2ccc(F)cc2)c2ccccc12 | inconclusive: 0.82 µM [activator, full curve] | 
O=C(CN1CCN(C(=O)C2CC2)CC1)Nc1ccc(Cl)cc1F |  | inactive: 5.5%
O=C(c1cc(-c2ccco2)on1)N1CCN(c2ccccc2)CC1 | inconclusive: 29.1 µM [activator, single point] | 
Cc1nnn(C23CC4CC(CC(CC(=O)Nc5ccc(C)c(C)c5)(C4)C2)C3)n1 |  | inactive: 10.1%
CCc1n[nH]c(=S)n1/N=C/c1c(C)nn(-c2ccccc2)c1Cl |  | inactive: -0.599%
C#CCSC1=C(C#N)C(c2cccs2)C(C(=O)OCC)=C(C)N1 (stereo not given) |  | inactive: 14.3%
Cc1ccc(N2C(=O)c3ccccc3NC2C(C)Cc2ccc3c(c2)OCO3)cc1 (stereo not given) | inconclusive: 20.6 µM [activator, single point] | 
Cc1c(N=C2SCC(=O)N2/N=C/c2ccccc2)c(=O)n(-c2ccccc2)n1C |  | inactive: -0.282%
COc1ccc(C(=O)NC(=S)NNC(=O)c2ccco2)cc1 |  | inactive: 22.3%
CCCCn1c(N)c(N(CCOC)C(=O)CN(C)S(=O)(=O)c2ccc(F)cc2)c(=O)[nH]c1=O |  | inactive: -0.338%
O=C1C=C(C2OC(CO)C(O)C2O)C(=O)N1 (stereo not given) | inconclusive: 29.1 µM [activator, single point] | 
CCOc1cc(-c2noc(N)c2C(=O)OC)cc(OCC)c1OCC |  | inactive: 24.6%

SMILES | Potency | activity, positive = re-replication
CC(C)n1ncc2c(C(=O)Nc3cccc(C#N)c3)cc(C3CC3)nc21 | active: 23.1 µM | 
COCCNC(=S)NN=C1CCCCCC1 | active: 8.2 µM | 
CCC(CO)Nc1ccc(-c2n[nH]c(=O)c3ccccc23)cc1[N+](=O)[O-] (stereo not given) | inconclusive: 29.1 µM [activator, single point] | 
CCN(CC)c1ccc(/C=N/Nc2nn[nH]n2)cc1 | inconclusive: 29.1 µM [activator, single point] | 
O=c1c2ccccc2oc2cc(OCc3ccc(F)cc3)cc(O)c12 | inconclusive: 29.1 µM [activator, single point] | 
CC(C)C(c1nnnn1Cc1ccco1)N1CCN(c2cccc(Cl)c2)CC1 (stereo not given) | inconclusive: 23.1 µM [activator, single point] | 
COc1ccc2c(c1)CCN1C2CCN2C(=O)CCC21 (stereo not given) | inconclusive: 6.51 µM [activator, single point] | 
COc1cc(NC(=O)Cn2ccsc2=N)c(C)cc1[N+](=O)[O-] | inconclusive: 29.1 µM [activator, single point] | 
COc1ccc(N2CCc3c(C)nc(SC)nc32)cc1 | inconclusive: 29.1 µM [activator, single point] | 
CCn1ncc(C2=NOC(C(=O)NCc3ccc(OC)cc3)C2)c1C (stereo not given) | inconclusive: 16.4 µM [activator, single point] | 
CCOc1cc(/C=C2\C(=N)N3N=C(C)SC3=NC2=O)ccc1OCCOc1cccc(OC)c1 | inconclusive: 25.9 µM [activator, single point] | 
Cc1ccc(C(=O)N/C(=C\c2ccc(-c3ccccc3[N+](=O)[O-])o2)C(=O)NCCCN2CCOCC2)cc1 | inconclusive: 16.4 µM [activator, partial curve, poor fit] | 
O=C1/C(=C/c2ccncc2)SC(=S)N1Nc1ccccc1 | inconclusive: 11.6 µM [activator, partial curve, poor fit] | 
O=C(CCc1nnc2ccc(N3CCC4(CC3)OCCO4)nn12)N1CCCCC1 |  | inactive: 1.11%
O=C(CNC(=O)c1ccccc1)N/N=C/c1cc(Br)ccc1O |  | inactive: 12.9%
CCOC(=O)C1(Nc2nccs2)Sc2ccccc2NC1=O (stereo not given) | active: 13 µM | 
Cc1nc2cc(C(=O)NCc3ccc4c(c3)OCO4)ccc2n1-c1ccc(Br)cc1 | inconclusive: 29.1 µM [activator, single point] | 
O=C(CSc1nc(-c2ccccc2)cc(C(F)(F)F)n1)c1cccc([N+](=O)[O-])c1 | inconclusive: 16.4 µM [activator, partial curve, poor fit] | 
Cc1ccc(C)c(NC(=S)NCCN2CCOCC2)c1 | inconclusive: 18.4 µM [activator, single point] | 
O=C(c1ccncc1)N1CCN(CCc2ccccc2)CC1 | active: 18.4 µM | 
CCCCOc1ccc(-c2nnc(-c3cc[n+](C)cc3)o2)cc1 | inconclusive: 18.4 µM [activator, single point] | 
Cc1nn(-c2ccccc2)c(Cl)c1/C=N/NC(=O)CCNc1n[nH]c(=O)[nH]c1=O |  | inactive: 18.3%

From PubChem BioAssay AID624296 (National Center for Advancing Translational Sciences (NCATS), 2012)
